# Test results published in the supplement of paper PMC8728848.
# The other results are listed elsewhere or left out.
# B1: PX9961A-pdi-456-24-456 (Parabacteroides distasonis) (protein)
# chain: KTSSTQLPTIDAISSVADLTNAVNGVYEQQATEVGSYGAEFTLLADLRSGDFQSISTVNHAGPMYRYQTGKNDEMVYSFYKLFYNSLARLNNVLAAAENLEGADVDILKGELYAMRALYHFDLARVFAKLPSTTDMNDLGIVLSTEVYPTDYIGTRATLQQTYDQILKDIETALPLLSKDKQTGHINYWGALAIRARAYLYLEKNKEALADCKEIIASSPYKLYTRDEYIGAWDKEGTNEAIFEILVTPNYNAQRNSIGYFTHASGYGECAATESFLEELAKHPGDIRTELFAKETDNGYDGTYPQKYKGRDGQIYVNNPKVVRLSEVYLIAAEAALKAGDTSAAAGYMNTLRKNRIENYTDVASITLDDILLERRLELFTEGHTAWDAWRNGKSVNNKFVGEVKPGDYRTIMAIPIGEITVSRGQLIQNPGY
# Key:
# Experiment in all cases: glycan array binding signal (z-score within array); higher = stronger binding
# Conditions in all cases: glycan notation: IUPAC condensed, linker removed
# [1] = molecular target: Fuc(a1-2)[Gal(a1-3)]Gal(b1-4)GlcNAc(b1-2)Man(a1-3)[Fuc(a1-2)[Gal(a1-3)]Gal(b1-4)GlcNAc(b1-2)Man(a1-6)]Man(b1-4)GlcNAc(b1-4)GlcNAc
# Outline: (§1)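 Negative Z-scores can be read as non-binding. The Z-score is calculated within each array and then averaged across arrays of one protein sequence at different concentrations or buffers and across linkers. Arrays, 3228 in all, were curated from the Consortium for Functional Glycomics database and kept only where the protein sequence was available.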
# [2] = molecular target: Fuc(a1-2)[Gal(a1-3)]Gal(b1-4)GlcNAc(b1-2)Man(a1-3)[Fuc(a1-2)[Gal(a1-3)]Gal(b1-4)GlcNAc(b1-2)Man(a1-6)]Man(b1-4)GlcNAc(b1-4)[Fuc(a1-6)]GlcNAc
# Outline: as §1
# [3] = molecular target: Fuc(a1-2)[Gal(a1-3)]Gal(b1-4)GlcNAc(b1-3)GalNAc
# Outline: as §1
# [4] = molecular target: Fuc(a1-2)[Gal(a1-3)]Gal(b1-4)GlcNAc(b1-3)[Fuc(a1-2)[Gal(a1-3)]Gal(b1-4)GlcNAc(b1-6)]GalNAc
# Outline: as §1
# [5] = molecular target: Fuc(a1-2)[Gal(a1-3)]Gal(b1-4)GlcNAc(b1-6)GalNAc
# Outline: as §1
# [6] = molecular target: Fuc(a1-2)[Gal(a1-3)]Gal(b1-4)[Fuc(a1-3)]Glc
# Outline: as §1
# [7] = molecular target: Fuc(a1-2)[Gal(a1-3)]Gal(b1-4)[Fuc(a1-3)]GlcNAc
# Outline: as §1
# [8] = molecular target: Fuc(a1-2)[Gal(a1-3)]Gal(b1-4)[Fuc(a1-3)]GlcNAc(b1-3)GalNAc
# Outline: as §1
# [9] = molecular target: Fuc(a1-2)[Gal(a1-4)]Gal(b1-4)GlcNAc
# Outline: as §1
# [10] = molecular target: Fuc(a1-2)[GalNAc(a1-3)]Gal
# Outline: as §1
# [11] = molecular target: Fuc(a1-2)[GalNAc(a1-3)]Gal(b1-3)GalNAc(a1-3)[Fuc(a1-2)]Gal(b1-4)GlcNAc
# Outline: as §1
# [12] = molecular target: Fuc(a1-2)[GalNAc(a1-3)]Gal(b1-3)GalNAc(b1-3)Gal(a1-4)Gal(b1-4)Glc
# Outline: as §1
# [13] = molecular target: Fuc(a1-2)[GalNAc(a1-3)]Gal(b1-3)GlcNAc
# Outline: as §1
# [14] = molecular target: Fuc(a1-2)[GalNAc(a1-3)]Gal(b1-3)GlcNAc(b1-2)Man(a1-3)[Fuc(a1-2)[GalNAc(a1-3)]Gal(b1-3)GlcNAc(b1-2)Man(a1-6)]Man(b1-4)GlcNAc(b1-4)GlcNAc
# Outline: as §1
# [15] = molecular target: Fuc(a1-2)[GalNAc(a1-3)]Gal(b1-3)GlcNAc(b1-2)Man(a1-3)[Fuc(a1-2)[GalNAc(a1-3)]Gal(b1-3)GlcNAc(b1-2)Man(a1-6)]Man(b1-4)GlcNAc(b1-4)[Fuc(a1-6)]GlcNAc
# Outline: as §1
# [16] = molecular target: Fuc(a1-2)[GalNAc(a1-3)]Gal(b1-3)GlcNAc(b1-3)GalNAc
# Outline: as §1
# [17] = molecular target: Fuc(a1-2)[GalNAc(a1-3)]Gal(b1-3)GlcNAc(b1-6)GalNAc
# Outline: as §1
# [18] = molecular target: Fuc(a1-2)[GalNAc(a1-3)]Gal(b1-4)Glc
# Outline: as §1
# [19] = molecular target: Fuc(a1-2)[GalNAc(a1-3)]Gal(b1-4)GlcNAc
# Outline: as §1
# [20] = molecular target: Fuc(a1-2)[GalNAc(a1-3)]Gal(b1-4)GlcNAc(b1-2)Man
# Outline: as §1
# [21] = molecular target: Fuc(a1-2)[GalNAc(a1-3)]Gal(b1-4)GlcNAc(b1-2)Man(a1-3)[Fuc(a1-2)[GalNAc(a1-3)]Gal(b1-4)GlcNAc(b1-2)Man(a1-6)]Man(b1-4)GlcNAc(b1-4)GlcNAc
# Outline: as §1
# [22] = molecular target: Fuc(a1-2)[GalNAc(a1-3)]Gal(b1-4)GlcNAc(b1-2)Man(a1-3)[Fuc(a1-2)[GalNAc(a1-3)]Gal(b1-4)GlcNAc(b1-2)Man(a1-6)]Man(b1-4)GlcNAc(b1-4)[Fuc(a1-6)]GlcNAc
# Outline: as §1
# [23] = molecular target: Fuc(a1-2)[GalNAc(a1-3)]Gal(b1-4)GlcNAc(b1-3)Gal(b1-4)GlcNAc
# Outline: as §1
# [24] = molecular target: Fuc(a1-2)[GalNAc(a1-3)]Gal(b1-4)GlcNAc(b1-3)Gal(b1-4)GlcNAc(b1-3)Gal(b1-4)GlcNAc
# Outline: as §1
# [25] = molecular target: Fuc(a1-2)[GalNAc(a1-3)]Gal(b1-4)GlcNAc(b1-3)GalNAc
# Outline: as §1
# [26] = molecular target: Fuc(a1-2)[GalNAc(a1-3)]Gal(b1-4)GlcNAc(b1-3)[Fuc(a1-2)[GalNAc(a1-3)]Gal(b1-4)GlcNAc(b1-6)]GalNAc
# Outline: as §1
# [27] = molecular target: Fuc(a1-2)[GalNAc(a1-3)]Gal(b1-4)GlcNAc(b1-6)GalNAc
# Outline: as §1
# [28] = molecular target: Fuc(a1-2)[GalNAc(a1-3)]Gal(b1-4)[Fuc(a1-3)]GlcNAc
# Outline: as §1
# [29] = molecular target: Fuc(a1-2)[GalNAc(a1-3)]Gal(b1-4)[Fuc(a1-3)]GlcNAc(b1-3)GalNAc
# Outline: as §1
# [30] = molecular target: Fuc(a1-2)[GalNAc(a1-4)]Gal(b1-4)GlcNAc
# Outline: as §1
# [31] = molecular target: Fuc(a1-2)[GalNAc(b1-3)]Gal
# Outline: as §1
# Fuc(a1-3)GlcNAc = molecular target: Fuc(a1-3)GlcNAc
# Outline: as §1
# [32] = molecular target: Fuc(a1-3)[Gal(b1-4)]Glc6S
# Outline: as §1
# [33] = molecular target: Fuc(a1-3)[Gal(b1-4)]GlcNAc
# Outline: as §1
# [34] = molecular target: Fuc(a1-3)[Gal(b1-4)]GlcNAc(b1-2)Man
# Outline: as §1
# [35] = molecular target: Fuc(a1-3)[Gal(b1-4)]GlcNAc(b1-2)Man(a1-3)[Fuc(a1-3)[Gal(b1-4)]GlcNAc(b1-2)Man(a1-6)]Man(b1-4)GlcNAc(b1-4)GlcNAc
# Outline: as §1
# [36] = molecular target: Fuc(a1-3)[Gal(b1-4)]GlcNAc(b1-2)Man(a1-3)[Fuc(a1-3)[Gal(b1-4)]GlcNAc(b1-2)Man(a1-6)]Man(b1-4)GlcNAc(b1-4)[Fuc(a1-6)]GlcNAc
# Outline: as §1
binder,measurement,setting,value
B1,glycan array binding signal (z-score),[1],-0.024
same,glycan array binding signal (z-score),[2],-0.332
same,glycan array binding signal (z-score),[3],0.176
same,glycan array binding signal (z-score),[4],0.596
same,glycan array binding signal (z-score),[5],-0.28
same,glycan array binding signal (z-score),[6],-0.472
same,glycan array binding signal (z-score),[7],-0.227
same,glycan array binding signal (z-score),[8],-0.012
same,glycan array binding signal (z-score),[9],-0.286
same,glycan array binding signal (z-score),[10],-0.073
same,glycan array binding signal (z-score),[11],-0.263
same,glycan array binding signal (z-score),[12],-0.246
same,glycan array binding signal (z-score),[13],-0.378
same,glycan array binding signal (z-score),[14],-0.57
same,glycan array binding signal (z-score),[15],-0.098
same,glycan array binding signal (z-score),[16],-0.485
same,glycan array binding signal (z-score),[17],-0.088
same,glycan array binding signal (z-score),[18],0.428
same,glycan array binding signal (z-score),[19],-0.142
same,glycan array binding signal (z-score),[20],-0.43
same,glycan array binding signal (z-score),[21],-0.443
same,glycan array binding signal (z-score),[22],-0.089
same,glycan array binding signal (z-score),[23],0.539
same,glycan array binding signal (z-score),[24],-0.097
same,glycan array binding signal (z-score),[25],-0.524
same,glycan array binding signal (z-score),[26],0.144
same,glycan array binding signal (z-score),[27],-0.015
same,glycan array binding signal (z-score),[28],-0.279
same,glycan array binding signal (z-score),[29],0.753
same,glycan array binding signal (z-score),[30],0.192
same,glycan array binding signal (z-score),[31],-0.12
same,glycan array binding signal (z-score),Fuc(a1-3)GlcNAc,-0.424
same,glycan array binding signal (z-score),[32],0.11
same,glycan array binding signal (z-score),[33],-0.238
same,glycan array binding signal (z-score),[34],-0.45
same,glycan array binding signal (z-score),[35],-0.323
same,glycan array binding signal (z-score),[36],0.26
